Reference: patent US20230159453A1 (COCRYSTAL PHARMA, INC., priority 2020, published 2023)

Each molecule was assayed against Noro protease (Norovirus, UniProt Q83883) (assay: Norovirus protease inhibition assay (Noro-Norwalk FRET protease assay)). Conditions: IC50 (μM), peptide substrate 10 μM, 90 minutes at 37° C., compounds 200 μM to 10.2 nM.

With CC(C)(c1cccc(Cl)c1)C(OC(=O)N[C@@H](CC1CCCCC1)C(=O)N[C@H](C=O)C[C@@H]1CCNC1=O)c1ccccc1 (stereo partly drawn) [Compound C110, 2-(3-Chlorophenyl)-2-methyl-1-phenylpropyl ((S)-3-cyclohexyl-1-oxo-1-(((S)-1-oxo-3-((S)-2-oxopyrrolidin-3-yl)propan-2-yl)amino)propan-2-yl) carbamate] as the molecule, how does the IC50 read?
The IC50 was 1.3 µM.

For CC(C)(COC(=O)N[C@H](C(=O)N[C@@H](C[C@@H]1CCNC1=O)C(O)S(=O)(=O)O)C(C)(C)C)c1cccc(Cl)c1 (stereo partly drawn) [Compound C111, Sodium (2S)-2-((S)-2-(((2-(3-chlorophenyl)-2-methylpropoxy)carbonyl)amino)-3,3-dimethylbutanamido)-1-hydroxy-3-((S)-2-oxopyrrolidin-3-yl)propane-1-sulfonate], which IC50 is on record?
The IC50 was 40.7 µM.

For CC(=O)N1CCC2(CC1)CC(CC(NC(=O)[C@@H](CC1CCCCC1)NC(=O)c1cc3ccccc3[nH]1)C(=O)C(N)=O)C(=O)N2 (stereo partly drawn) [Compound C112, N-((2R)-1-((1-(8-acetyl-2-oxo-1,8-diazaspiro[4.5]decan-3-yl)-4-amino-3,4-dioxobutan-2-yl)amino)-3-cyclohexyl-1-oxopropan-2-yl)-1H-indole-2-carboxamide], which IC50 is on record?
The IC50 was 109 µM.

CC(C)(c1cccc(Cl)c1)C(OC(=O)N[C@@H](CC1CCCCC1)C(=O)N[C@@H](C[C@@H]1CCNC1=O)C(=O)C(N)=O)c1ccccc1 (stereo partly drawn) [Compound C113, 2-(3-Chlorophenyl)-2-methyl-1-phenylpropyl ((S)-1-(((S)-4-amino-3,4-dioxo-1-((S)-2-oxopyrrolidin-3-yl)butan-2-yl)amino)-3-cyclohexyl-1-oxopropan-2-yl) carbamate] was tested. Which IC50 did it give?
The IC50 was 105 µM.

With CC(C)C[C@H](NC(=O)OC(Cc1cccc(Cl)c1)c1ccccc1)C(=O)N[C@@H](C[C@@H]1CCNC1=O)C(O)S(=O)(=O)O (stereo partly drawn) [Compound C114, Sodium (2S)-2-((2S)-2-(((2-(3-chlorophenyl)-1-phenylethoxy)carbonyl)amino)-4-methylpentanamido)-1-hydroxy-3-((S)-2-oxopyrrolidin-3-yl) propane-1-sulfonate] as the molecule, how does the IC50 read?
The IC50 was 1.7 µM.

Which IC50 does the source give for O=C(N[C@@H](CC1CCCCC1)C(=O)N[C@@H](C[C@@H]1CCNC1=O)C(O)S(=O)(=O)O)OC(Cc1cccc(Cl)c1)c1ccccc1 (stereo partly drawn) [Compound C115, Sodium (2S)-2-((2S)-2-(((2-(3-chlorophenyl)-1-phenylethoxy)carbonyl)amino)-3-cyclohexylpropanamido)-1-hydroxy-3-((S)-2-oxopyrrolidin-3-yl)propane-1-sulfonate] here?
Its IC50 is 2.2 µM.

With NC(=O)C(=O)[C@H](C[C@@H]1CCNC1=O)NC(=O)[C@H](CC1CCCCC1)NC(=O)OC(Cc1cccc(Cl)c1)c1ccccc1 (stereo partly drawn) [Compound C116, 2-(3-Chlorophenyl)-1-phenylethyl ((S)-1-(((S)-4-amino-3,4-dioxo-1-((S)-2-oxopyrrolidin-3-yl)butan-2-yl)amino)-3-cyclohexyl-1-oxopropan-2-yl)carbamate] as the molecule, how does the IC50 read?
The IC50 was 98.1 µM.

COc1cccc2[nH]c(C(=O)N[C@@H](CC3CCCCC3)C(=O)NC(CC3CC4(CCN(C(C)=O)CC4)NC3=O)C(=O)C(N)=O)cc12 (stereo partly drawn) [Compound C117, N-((2S)-1-((1-(8-Acetyl-2-oxo-1,8-diazaspiro[4.5]decan-3-yl)-4-amino-3,4-dioxobutan-2-yl)amino)-3-cyclohexyl-1-oxopropan-2-yl)-4-methoxy-1H-indole-2-carboxamide] was tested. Which IC50 did it give?
Its IC50 is 77.7 µM.

With CC(C)C(C)(C)C(NC(=O)OCc1ccccc1)C(=O)N[C@H](C=O)C[C@@H]1CCNC1=O (stereo partly drawn) [Compound C118, Benzyl (3,3,4-trimethyl-1-oxo-1-(((S)-1-oxo-3-((S)-2-oxopyrrolidin-3-yl)propan-2-yl)amino)pentan-2-yl)carbamate] as the molecule, how does the IC50 read?
Its IC50 is 119 µM.

For NC(=O)C(=O)C(CC1CC2(CCCCC2)NC1=O)NC(=O)[C@H](CC1CCCCC1)NC(=O)c1cc2ccccc2[nH]1 (stereo partly drawn) [Compound C119, N-((2S)-1-((4-amino-3,4-dioxo-1-(2-oxo-1-azaspiro[4.5]decan-3-yl)butan-2-yl)amino)-3-cyclohexyl-1-oxopropan-2-yl)-1H-indole-2-carboxamide], which IC50 is on record?
Its IC50 is 67.6 µM.

For CC(C)(c1cccc(Cl)c1)C(OC(=O)N[C@@H](CC1CCCCC1)C(=O)N[C@@H](C[C@@H]1CCNC1=O)C(=O)C(N)=O)c1cccc(F)c1 (stereo partly drawn) [Compound C120, 2-(3-Chlorophenyl)-1-(3-fluorophenyl)-2-methylpropyl ((S)-1-(((S)-4-amino-3,4-dioxo-1-((S)-2-oxopyrrolidin-3-yl)butan-2-yl)amino)-3-cyclohexyl-1-oxopropan-2-yl) carbamate], which IC50 is on record?
Its IC50 is 62.6 µM.

CC(=O)N1CCC2(CC1)C[C@@H](C[C@H](NC(=O)[C@H](CC1CCCCC1)NC(=O)c1cc3ccccc3[nH]1)C(=O)C(N)=O)C(=O)N2 [Compound C121, N—((S)-1-(((S)-1-((R)-8-acetyl-2-oxo-1,8-diazaspiro[4.5]decan-3-yl)-4-amino-3,4-dioxobutan-2-yl)amino)-3-cyclohexyl-1-oxopropan-2-yl)-1H-indole-2-carboxamide] was tested. Which IC50 did it give?
The IC50 was 107 µM.

CC(C)(c1cccc(Cl)c1)C(OC(=O)N[C@@H](CC1CCCCC1)C(=O)N[C@@H](C[C@@H]1CCNC1=O)C(=O)C(N)=O)c1ccc2ccccc2c1 (stereo partly drawn) [Compound C122, 2-(3-Chlorophenyl)-2-methyl-1-(naphthalen-2-yl)propyl ((S)-1-(((S)-4-amino-3,4-dioxo-1-((S)-2-oxopyrrolidin-3-yl)butan-2-yl)amino)-3-cyclohexyl-1-oxopropan-2-yl)carbamate] was tested. Which IC50 did it give?
Its IC50 is 35.2 µM.

CC1(C)CC(CC(NC(=O)[C@H](CC2CCCCC2)NC(=O)c2cc3ccccc3[nH]2)C(=O)C(N)=O)C(=O)N1 (stereo partly drawn) [Compound C123, N-((2S)-1-((4-amino-1-(5,5-dimethyl-2-oxopyrrolidin-3-yl)-3,4-dioxobutan-2-yl)amino)-3-cyclohexyl-1-oxopropan-2-yl)-1H-indole-2-carboxamide] was tested. Which IC50 did it give?
The IC50 was 121 µM.

With Cc1cccc(C(OC(=O)N[C@@H](CC2CCCCC2)C(=O)N[C@@H](C[C@@H]2CCNC2=O)C(=O)C(N)=O)C(C)(C)c2cccc(Cl)c2)c1 (stereo partly drawn) [Compound C124, 2-(3-chlorophenyl)-2-methyl-1-(m-tolyl)propyl ((S)-1-(((S)-4-amino-3,4-dioxo-1-((S)-2-oxopyrrolidin-3-yl)butan-2-yl)amino)-3-cyclohexyl-1-oxopropan-2-yl) carbamate] as the molecule, how does the IC50 read?
Its IC50 is 36.5 µM.

For CC(=O)N1CCC2(CC1)C[C@H](C[C@H](NC(=O)[C@H](CC1CCCCC1)NC(=O)c1cc3ccccc3[nH]1)C(=O)C(N)=O)C(=O)N2 [Compound C125, N—((S)-1-(((S)-1-((S)-8-acetyl-2-oxo-1,8-diazaspiro[4.5]decan-3-yl)-4-amino-3,4-dioxobutan-2-yl)amino)-3-cyclohexyl-1-oxopropan-2-yl)-1H-indole-2-carboxamide], which IC50 is on record?
Its IC50 is 47.2 µM.

CC(=O)N1CCC2(CC1)CC(CC(NC(=O)[C@H](CC1CCCCC1)NC(=O)c1cc3cc(Cl)ccc3[nH]1)C(=O)C(N)=O)C(=O)N2 (stereo partly drawn) [Compound C126, N-((2S)-1-((1-(8-acetyl-2-oxo-1,8-diazaspiro[4.5]decan-3-yl)-4-amino-3,4-dioxobutan-2-yl)amino)-3-cyclohexyl-1-oxopropan-2-yl)-5-chloro-1H-indole-2-carboxamide] was tested. Which IC50 did it give?
Its IC50 is greater than 200 µM.

CC(C)(c1cccc(Cl)c1)C(OC(=O)N[C@@H](CC1CCCCC1)C(=O)N[C@H](C=O)C[C@@H]1CCNC1=O)c1ccc2ccccc2c1 (stereo partly shown) [Compound C127] was tested. Which IC50 did it give?
The IC50 was 5.7 µM.

For CC(C)CN1C(=O)N[C@@H](C[C@@H]2CCNC2=O)C(O)N1C(=O)OCc1ccccc1 (stereo partly drawn) [Compound C129, Benzyl (5S)-6-hydroxy-2-isobutyl-3-oxo-5-(((S)-2-oxopyrrolidin-3-yl)methyl)-1,2,4-triazinane-1-carboxylate], which IC50 is on record?
The IC50 was greater than 200 µM.

With CC(C)(c1cccc(Cl)c1)C(OC(=O)N[C@@H](CC1CCCCC1)C(=O)N[C@@H](C[C@@H]1CCNC1=O)C(=O)C(N)=O)c1ccc2c(c1)CCC2 (stereo partly drawn) [Compound C131, 2-(3-Chlorophenyl)-1-(2,3-dihydro-1H-inden-5-yl)-2-methylpropyl ((S)-1-(((S)-4-amino-3,4-dioxo-1-((S)-2-oxopyrrolidin-3-yl)butan-2-yl)amino)-3-cyclohexyl-1-oxopropan-2-yl)carbamate] as the molecule, how does the IC50 read?
The IC50 was 193 µM.

With CC(C)(c1cccc(Cl)c1)C(OC(=O)N[C@@H](CC1CCCCC1)C(=O)N[C@H](C=O)C[C@@H]1CCNC1=O)c1ccc2c(c1)CCC2 (stereo partly drawn) [Compound C132, 2-(3-Chlorophenyl)-1-(2,3-dihydro-1H-inden-5-yl)-2-methylpropyl ((S)-3-cyclohexyl-1-oxo-1-(((S)-1-oxo-3-((S)-2-oxopyrrolidin-3-yl)propan-2-yl)amino)propan-2-yl)carbamate] as the molecule, how does the IC50 read?
Its IC50 is 6 µM.

For COc1cccc2[nH]c(C(=O)N[C@@H](CC3CCCCC3)C(=O)NC(C=O)CC3CC4(CCN(C(C)=O)CC4)NC3=O)cc12 (stereo partly drawn) [Compound C133, N-((2S)-1-((1-(8-acetyl-2-oxo-1,8-diazaspiro[4.5]decan-3-yl)-3-oxopropan-2-yl)amino)-3-cyclohexyl-1-oxopropan-2-yl)-4-methoxy-1H-indole-2-carboxamide], which IC50 is on record?
Its IC50 is 0.743 µM.

Which IC50 does the source give for CC(C)(c1cccc(Cl)c1)C(OC(=O)N[C@@H](CC1CCCCC1)C(=O)N[C@@H](C[C@@H]1CCNC1=O)C(=O)C(N)=O)c1ccc(Cl)cc1 (stereo partly drawn) [Compound C134, 2-(3-Chlorophenyl)-1-(4-chlorophenyl)-2-methylpropyl ((S)-1-(((S)-4-amino-3,4-dioxo-1-((S)-2-oxopyrrolidin-3-yl)butan-2-yl)amino)-3-cyclohexyl-1-oxopropan-2-yl)carbamate] here?
The IC50 was 171 µM.

Which IC50 does the source give for CC(C)(c1cccc(Cl)c1)C(OC(=O)N[C@@H](CC1CCCCC1)C(=O)N[C@@H](C[C@@H]1CCNC1=O)C(=O)C(N)=O)c1ccc(F)cc1 (stereo partly drawn) [Compound C135, 2-(3-Chlorophenyl)-1-(4-fluorophenyl)-2-methylpropyl ((S)-1-(((S)-4-amino-3,4-dioxo-1-((S)-2-oxopyrrolidin-3-yl)butan-2-yl)amino)-3-cyclohexyl-1-oxopropan-2-yl) carbamate] here?
Its IC50 is 192 µM.

With Cc1cccc(C(OC(=O)N[C@@H](CC2CCCCC2)C(=O)N[C@H](C=O)C[C@@H]2CCNC2=O)C(C)(C)c2cccc(Cl)c2)c1 (stereo partly drawn) [Compound C136, 2-(3-Chlorophenyl)-2-methyl-1-(m-tolyl) propyl ((S)-3-cyclohexyl-1-oxo-1-(((S)-1-oxo-3-((S)-2-oxopyrrolidin-3-yl)propan-2-yl)amino)propan-2-yl) carbamate] as the molecule, how does the IC50 read?
The IC50 was 3.2 µM.
